# Test results reported in PubChem BioAssay AID1768 (National Center for Advancing Translational Sciences (NCATS), 2009).
# “And” between values parts separate entries of the source, which are not always exact repeats. Equal entries are not always repeated. About 620 (0.23%) of roughly 270,000 compounds were called active. The inconclusive results got no clear call from the source; some entries with a clear call stand among them for comparison. Calls follow the shape of the dose curve; as a rule, active = well fitted inhibition curve with a large enough effect in the polarisation, with a control signal flat (not every such curve was filed as active); inconclusive = small, poorly fitted or top-dose-only effect, or effect the other way, or a change in a side signal; inactive = no such curve, though single readings can be large or run the other way; the % refers to the polarisation. Potencies beside an inconclusive call are fits to weak or partial responses and may not hold up. A note “side channel” means that the fit belongs to a control or component signal, not to the main read-out.
# Target: Menin (Homo sapiens) (UniProt O00255)
# UniProt O00255, sequence (O00255 whole entry, looked up): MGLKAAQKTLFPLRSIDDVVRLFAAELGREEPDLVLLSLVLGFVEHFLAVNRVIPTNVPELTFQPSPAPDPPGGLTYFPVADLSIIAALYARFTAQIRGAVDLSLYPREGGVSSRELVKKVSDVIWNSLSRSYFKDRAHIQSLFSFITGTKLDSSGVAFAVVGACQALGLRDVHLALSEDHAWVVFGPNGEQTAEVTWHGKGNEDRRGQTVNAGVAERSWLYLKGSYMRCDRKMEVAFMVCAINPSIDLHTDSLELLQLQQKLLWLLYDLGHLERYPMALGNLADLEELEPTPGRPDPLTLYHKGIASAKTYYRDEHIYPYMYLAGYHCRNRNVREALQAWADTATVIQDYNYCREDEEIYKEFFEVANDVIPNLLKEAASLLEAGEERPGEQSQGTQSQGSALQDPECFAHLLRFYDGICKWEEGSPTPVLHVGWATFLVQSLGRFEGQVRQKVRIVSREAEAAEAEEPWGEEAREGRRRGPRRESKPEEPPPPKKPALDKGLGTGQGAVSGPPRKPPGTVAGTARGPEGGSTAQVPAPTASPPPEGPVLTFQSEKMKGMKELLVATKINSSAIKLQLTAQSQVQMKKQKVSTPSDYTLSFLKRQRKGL
# Experiment: qHTS Assay for Inhibitors Targeting the Menin-MLL Interaction in MLL Related Leukemias: Competition With Texas Red Labeled MLL-derived Mutant Peptide
# Conditions: fluorescence polarization; series mostly up to 61.6 µM
# Potency is read from the fitted curve at half-maximal effect; tags tell the direction and shape of the fitted curve or compound fluorescence and quenching.
row,SMILES,Potency
1,Cc1ccc(-n2c(N)c(-c3nc4ccccc4n3C)sc2=S)cc1,"inconclusive: 15.8 µM [quencher, side channel, partial curve]"
2,N=C1/C(=C/c2cccs2)C(=O)N=C2SN=C(SCc3ccccc3)N12,"inconclusive: 12.6 µM [quencher, side channel, partial curve]"
3,CCOc1ccc(-n2c(-c3ccc(Br)cc3)c[n+]3c2CCCCC3)cc1,"inconclusive: 2.51 µM [fluorescent, side channel, partial curve]"
4,Cc1ccc(/C=N/NC(=O)CSCc2ccc(Cl)cc2)cc1,"inconclusive: 20 µM [fluorescent, side channel, partial curve, poor fit]"
5,O=C1CC(c2ccccc2)n2nc(NS(=O)(=O)c3ccccc3)nc2N1 (stereo not drawn),"inconclusive: 39.8 µM [inhibitor, partial curve]"
6,COc1cc(C2C(C(=O)c3cc4ccccc4o3)=C(O)C(=O)N2c2cc(C)on2)cc(OC)c1OC (stereo not drawn),"inconclusive: 17.8 µM [quencher, side channel, partial curve]"
7,COc1ccc(C(=O)C2CCCN(Cc3cc(C)c(O)c(C)c3)C2)c(OC)c1 (stereo not drawn),"inconclusive: 39.8 µM [inhibitor, single point]"
8,Cc1csc(NC(=O)CSc2nnc(NC(=O)COc3ccc(Cl)cc3)s2)n1,active: 25.1 µM
9,Cc1cc(C)cc(Oc2coc3cc(OC(=O)c4cccs4)ccc3c2=O)c1,"inconclusive: 15.8 µM [inhibitor, partial curve]"
10,Cc1nc(NCc2ccccc2)c2nc(-c3ccccc3)n(CCN3CCCCC3)c2n1,"inconclusive: 2.51 µM [fluorescent, side channel, full curve, poor fit]"
11,COc1ccccc1CC(=O)N(Cc1ccccc1)c1cccc(C)c1,"inconclusive: 8.91 µM [fluorescent, side channel, partial curve]"
12,Cc1nc2ccccc2c(=O)n1/N=C/c1ccccc1OC(F)F,"inconclusive: 25.1 µM [inhibitor, partial curve, poor fit]"
13,FC(F)(F)c1ccccc1/C=N/n1c(C2CCCCC2)n[nH]c1=S,"inconclusive: 8.91 µM [quencher, side channel, single point]"
14,CCCS(=O)(=O)c1c(S(=O)(=O)CCC)c2c(N)cccn2c1C(=O)c1ccc(OC)cc1,"inconclusive: 39.8 µM [quencher, side channel, single point]"
15,CC[C@@H]1Cc2cc(O)ccc2C2=C1c1ccc(O)cc1C[C@H]2CC,"inconclusive: 15.8 µM [quencher, side channel, partial curve] and inconclusive: 14.1 µM [quencher, side channel, partial curve]"
16,CC(C)CC(c1nnnn1CC1CCCO1)N1CCN(C2CCCC2)CC1 (stereo not drawn),"inconclusive: 12.6 µM [inhibitor, partial curve]"
17,CC[C@H](C)[C@H](N)C(=O)N[C@@H](CC(N)=O)C(=O)N1CCC[C@H]1C(=O)N[C@H](C(=O)N[C@@H](Cc1ccc(O)cc1)C(=O)N[C@@H](CCCN=C(N)N)C(=O)N[C@@H](CC(C)C)C(=O)N[C@@H](CCCN=C(N)N)C(=O)N[C@@H](Cc1ccc(O)cc1)C(N)=O)[C@@H](C)CC,inactive
18,CCOC(=O)C(CCCOc1ccc(C(C)CC)cc1)C(=O)OCC (stereo not drawn),"inconclusive: 17.8 µM [fluorescent, side channel, partial curve, poor fit]"
19,O=C(Nc1ccccc1C(=O)N/N=C/c1ccco1)c1ccc(F)cc1,"inconclusive: 11.2 µM [quencher, side channel, partial curve]"
20,COCCn1c(SCC(=O)N2CCCCC2)nc2ccccc2c1=O,"inconclusive: 3.98 µM [fluorescent, side channel, full curve, poor fit]"
21,Cc1cc(C)nc(SCC(=O)NN)n1,"inconclusive: 22.4 µM [fluorescent, side channel, single point]"
22,O=C(COc1ccc(Br)cc1)Nc1ccc(-c2nnc(-c3ccco3)o2)cc1,"inconclusive: 39.8 µM [inhibitor, single point]"
23,C=CCc1c(OC(C)=O)c2ccccc2n(C)c1=O,"inconclusive: 25.1 µM [fluorescent, side channel, single point]"
24,COc1ccc(CCC(=O)Nc2cc([N+](=O)[O-])ccc2OC)cc1,"inconclusive: 39.8 µM [quencher, side channel, single point]"
25,CCOC(=O)c1ccc(NC(=O)CCc2nc(-c3ccccc3)no2)cc1,"inconclusive: 14.1 µM [quencher, side channel, partial curve]"
26,NNC(=O)CSc1c(-c2ccccc2)c2cc(Cl)ccc2[nH]c1=O,"inconclusive: 3.98 µM [fluorescent, side channel, full curve, poor fit]"
27,CC(C)c1ccc(OCCCCCN2CCOCC2)cc1,"inconclusive: 25.1 µM [inhibitor, partial curve]"

row,SMILES,Potency
1,C=CCOc1ccc(/C=C2\SC(N3CCCCC3)=NC2=O)cc1,inactive
2,COc1ccc(/C=N\NC(=O)c2ccc(Cn3cc(Br)c([N+](=O)[O-])n3)o2)c(OC)c1C,"inconclusive: 11.2 µM [quencher, side channel, partial curve, poor fit]"
3,CCCc1nnc(NC(=O)CCC(=O)NCc2ccccc2OC)s1,"inconclusive: 15.8 µM [fluorescent, side channel, partial curve]"
4,CCOc1ccc2nc(SCC(=O)NNC(=O)c3ccco3)c(C)cc2c1,"inconclusive: 39.8 µM [fluorescent, side channel, single point]"
5,CC(=O)N1CCN(S(=O)(=O)c2cccc(C(=O)Nc3ccc4c(c3)OCO4)c2)CC1,"inconclusive: 12.6 µM [quencher, side channel, partial curve]"
6,C=CCn1c(SCC(=O)c2cccs2)nnc1-c1cccc(OC)c1,"inconclusive: 8.91 µM [inhibitor, single point]"
7,CCOc1ccc(-n2c(C)c(C(C)=O)c3cc(OCC(N)=O)ccc32)cc1,"inconclusive: 5.01 µM [fluorescent, side channel, full curve, poor fit]"
8,O=C(CNC(=O)c1nc[nH]c1C(=O)NCC(=O)OCc1ccccc1)OCc1ccccc1,"inconclusive: 39.8 µM [fluorescent, side channel, single point]"
9,O=C(CCc1nnc2ccc(N3CCCC3)nn12)Nc1ccc(F)cc1F,"inconclusive: 39.8 µM [inhibitor, partial curve]"
10,O=C(COC(=O)c1ccccc1NCc1ccco1)Nc1ccc2c(c1)OCO2,"inconclusive: 39.8 µM [inhibitor, single point]"
11,COc1ccc(-c2oc3ncnc(N)c3c2-c2ccccc2)cc1,inactive
12,COc1ccc(Br)cc1C(=O)N/N=C/c1ccc([N+](=O)[O-])cc1,"inconclusive: 31.6 µM [quencher, side channel, single point]"
13,COC(=O)c1ccc(OC(C)C(=O)c2ccc(C)cc2)cc1 (stereo not drawn),"inconclusive: 3.16 µM [inhibitor, single point]"
14,COc1cccc(-c2csc(N3CCN(CC(=O)NNC(=O)c4ccc(Cl)cc4)CC3)n2)c1,"inconclusive: 35.5 µM [quencher, side channel, single point]"
15,Cc1cccc(Cc2cnc(NC(=O)CN3C(=O)/C(=C/c4ccccc4)SC3=S)s2)c1,"inconclusive: 0.631 µM [quencher, side channel, full curve, poor fit]"
16,COc1ccccc1NC(=O)CN(c1ccc(C)cc1)S(=O)(=O)c1c(C)n[nH]c1C,"inconclusive: 7.08 µM [inhibitor, single point]"
17,O=C(NCCc1c[nH]c2ccccc12)C1CCC(Cn2c(=S)[nH]c3ccccc3c2=O)CC1 (stereo not drawn),"inconclusive: 28.2 µM [inhibitor, single point]"
18,COc1ccc(NC(=O)Nc2ccc3nsnc3c2)cc1,"inconclusive: 11.2 µM [quencher, side channel, partial curve]"
19,O=C(N/N=C/c1c(Nc2cccc(C(F)(F)F)c2)nc2ccccn2c1=O)c1ccccc1[N+](=O)[O-],"inconclusive: 25.1 µM [quencher, side channel, partial curve]"
20,Cc1nn(Cc2ccc(F)cc2)c(C)c1NC(=O)c1cnn2c1NC(c1ccccc1)CC2C(F)(F)F (stereo not drawn),inactive
21,CC1C(=O)OC2CC34C5CC(C(C)(C)C)C36C(OC(=O)C6O)OC4(C(=O)O5)C21O (stereo not drawn),inactive
22,CCc1nnc(NC(=O)c2cc(-c3ccccn3)nc3ccc(Br)cc23)s1,"inconclusive: 17.8 µM [quencher, side channel, partial curve]"
23,CC(=O)Oc1c(C)cc(Cl)cc1C(=O)Nc1ccc([N+](=O)[O-])cc1Cl,"inconclusive: 25.1 µM [quencher, side channel, partial curve]"
24,COc1ccccc1NC(=O)c1ccc(NS(=O)(=O)c2ccc(F)c(Cl)c2)cc1,"inconclusive: 39.8 µM [quencher, side channel, single point]"
25,O=C(Nc1nc(-c2ccccc2)cs1)c1cccs1,"inconclusive: 12.6 µM [quencher, side channel, partial curve]"
26,Cc1cc(C)n(-c2nc(SCCN(C)C)c3c4c(sc3n2)CCCC4)n1,"inconclusive: 2 µM [fluorescent, side channel, full curve, poor fit]"
